Assay results published in the BET-seq Pho4 binding data (Le et al. 2018).
The other results are listed elsewhere or left out. These are noisy estimates, calculated here from bound and input reads.

molecular target: T1, Pho4 (S. cerevisiae) (UniProt P07270); assay: relative binding free energy (BET-seq); higher = weaker binding; settings: reference: library average
T1 sequence: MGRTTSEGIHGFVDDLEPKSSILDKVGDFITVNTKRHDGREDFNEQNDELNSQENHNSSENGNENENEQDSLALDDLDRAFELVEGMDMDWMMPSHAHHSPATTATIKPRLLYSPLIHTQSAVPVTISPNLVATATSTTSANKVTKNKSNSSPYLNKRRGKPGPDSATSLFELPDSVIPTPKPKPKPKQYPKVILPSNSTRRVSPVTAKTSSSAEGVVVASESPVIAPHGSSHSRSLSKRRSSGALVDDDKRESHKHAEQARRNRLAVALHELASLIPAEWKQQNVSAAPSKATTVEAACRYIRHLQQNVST

Sequence | relative binding free energy
TAGGGCACGTGATTTT | -0.07 kcal/mol
GTAGGCACGTGTGTCG | -0.1 kcal/mol
TCGTTCACGTGATTAA | 0.31 kcal/mol
ATGTCCACGTGAAGGG | 0.18 kcal/mol
GTGTGCACGTGCAATG | -0.12 kcal/mol
AGCTACACGTGAGTGG | 0.12 kcal/mol
GGTCGCACGTGATGCG | 0.12 kcal/mol
TGGGGCACGTGGGTTA | -0.17 kcal/mol
AGGTACACGTGTAGGA | 0.11 kcal/mol
TAGCTCACGTGAAGTT | 0.53 kcal/mol
GTGTGCACGTGAAATG | 0.32 kcal/mol
TTGAGCACGTGGGTCG | -0.14 kcal/mol
GGTTACACGTGTTTGT | 0.2 kcal/mol
TTGTCCACGTGCGTTG | -0.09 kcal/mol
GGCTACACGTGTTATT | 0.18 kcal/mol
AAGGGCACGTGTTTTA | 0.06 kcal/mol
GTGTGCACGTGGTAAC | -0.08 kcal/mol
TCGTACACGTGTTTCT | 0.19 kcal/mol
TAGTACACGTGTGTTA | 0.13 kcal/mol
CTTTTCACGTGAGGGG | 0.39 kcal/mol
TGGTGCACGTGACGTT | 0.06 kcal/mol
AGCGTCACGTGAGTGA | 0.29 kcal/mol
CAGTTCACGTGTTCTG | 0.36 kcal/mol

Sequence | relative binding free energy
CATGGCACGTGGGTGT | -0.17 kcal/mol
CAGGGCACGTGTCAGT | -0.06 kcal/mol
TCAAGCACGTGTGTGG | -0.05 kcal/mol
CCGGGCACGTGTGGAT | -0.07 kcal/mol
AGCTTCACGTGTTTTA | 0.19 kcal/mol
CGTTGCACGTGAGTGT | 0.15 kcal/mol
TATGTCACGTGTCTGA | 0.1 kcal/mol
AATCTCACGTGATTGG | 0.35 kcal/mol
TTGATCACGTGGCTCG | 0.22 kcal/mol
AACTGCACGTGTGATG | 0.08 kcal/mol
CGATGCACGTGGGAAT | 0.04 kcal/mol
TATGACACGTGTTAGA | -0.03 kcal/mol
TAAGTCACGTGGGGGC | -0.05 kcal/mol
GAGTGCACGTGCTTGA | -0.08 kcal/mol
TATGGCACGTGGTAGC | -0.22 kcal/mol
GTTAACACGTGTATGG | 0.01 kcal/mol
CGTGGCACGTGCGGGA | -0.08 kcal/mol
TAGTACACGTGGTTCT | -0.04 kcal/mol
GTTTGCACGTGCTTAT | -0.17 kcal/mol
GGGGGCACGTGGCAGA | -0.23 kcal/mol
TGCTTCACGTGAGCGT | 0.29 kcal/mol
GGGTGCACGTGTGTGC | -0.03 kcal/mol
TACTTCACGTGGGGAA | 0.2 kcal/mol

Sequence | relative binding free energy
GGTCTCACGTGATGGG | 0.44 kcal/mol
GAGGACACGTGAGGGG | 0.31 kcal/mol
GGCTGCACGTGGGCGA | -0.12 kcal/mol
AAATACACGTGGTATT | -0.03 kcal/mol
GAGTGCACGTGGTGTG | -0.07 kcal/mol
TAGTTCACGTGGTAGG | 0.25 kcal/mol
GGATCCACGTGGAGGG | -0.12 kcal/mol
ATTGTCACGTGATTAT | 0.1 kcal/mol
GCTTTCACGTGGGCGG | 0.09 kcal/mol
TTCGGCACGTGGCGAG | -0.22 kcal/mol
CTGTTCACGTGTGAAT | 0.29 kcal/mol
ATAATCACGTGTTGTC | -0.01 kcal/mol
CAGTTCACGTGTTTGG | 0.17 kcal/mol
AGATGCACGTGCTGAG | 0.14 kcal/mol
AGATGCACGTGAGGTT | 0.24 kcal/mol
AATGTCACGTGCTTAT | -0.02 kcal/mol
TGATTCACGTGGGTCG | 0.24 kcal/mol
TGTAGCACGTGTTATT | -0.03 kcal/mol
TTGGCCACGTGTGCGG | -0.08 kcal/mol
AGAAGCACGTGCGGTG | -0.16 kcal/mol
GAGAGCACGTGGTGGG | -0.04 kcal/mol
TGGTTCACGTGCATTT | 0.26 kcal/mol
AGGGTCACGTGTGGTT | 0.18 kcal/mol

Sequence | relative binding free energy
GTTAGCACGTGGTAAC | -0.05 kcal/mol
ATGAACACGTGTAGGC | 0.17 kcal/mol
TGTGACACGTGCTTTG | -0.01 kcal/mol
AATAGCACGTGGGGTC | -0.24 kcal/mol
AGGGACACGTGTGTCT | -0.12 kcal/mol
GTGGGCACGTGGTCGC | -0.03 kcal/mol
ATTCTCACGTGGGCTT | 0.21 kcal/mol
CATGTCACGTGGGACG | 0.07 kcal/mol
TTGACCACGTGTGGAG | 0.02 kcal/mol
TATTTCACGTGGCTTA | 0.22 kcal/mol
GTGACCACGTGTTGTT | -0.1 kcal/mol
TTTTACACGTGCTTGA | 0.1 kcal/mol
TTCGTCACGTGATAGA | 0.31 kcal/mol
CGGTTCACGTGCAGTT | 0.33 kcal/mol
AATAGCACGTGTTTGT | -0.11 kcal/mol
ATGCGCACGTGGAAGT | -0.09 kcal/mol
TGGTACACGTGGAGTT | 0.15 kcal/mol
GGGGTCACGTGCCAGT | 0.08 kcal/mol
TTAGCCACGTGATTGG | -0.04 kcal/mol
CAGGGCACGTGGTTAA | -0.1 kcal/mol
TTACGCACGTGATTAG | -0.01 kcal/mol
AGCGGCACGTGGAGGT | -0.1 kcal/mol
TTAGTCACGTGGGACG | -0.02 kcal/mol

Sequence | relative binding free energy
ATAAACACGTGTGTAT | -0.15 kcal/mol
TATGTCACGTGGATTG | 0.09 kcal/mol
TGTCGCACGTGTGTGT | -0.01 kcal/mol
TGTGACACGTGATGTA | 0.09 kcal/mol
GGTCACACGTGTGTGA | 0.07 kcal/mol
TGTTTCACGTGCGATT | 0.31 kcal/mol
GGGTTCACGTGCTTTG | 0.37 kcal/mol
CGACTCACGTGTGGGT | 0.15 kcal/mol
GGTCACACGTGTTTTT | 0.01 kcal/mol
TATTTCACGTGTGCTC | 0.28 kcal/mol
CGGGGCACGTGGTTAT | -0.26 kcal/mol
GTATGCACGTGAGTGG | 0.19 kcal/mol
TATTACACGTGTTTGA | 0.02 kcal/mol
AATGGCACGTGTGACG | -0.1 kcal/mol
TAGGGCACGTGTGCAT | -0.15 kcal/mol
AGTGGCACGTGTGCCG | -0.11 kcal/mol
GTCTTCACGTGAATGT | 0.42 kcal/mol
AGTTACACGTGCGTGT | -0.09 kcal/mol
TTCGTCACGTGGAGTT | 0.07 kcal/mol
TGCCGCACGTGTGGGG | -0.04 kcal/mol
TGTGCCACGTGGGCTT | -0.24 kcal/mol
TTAATCACGTGCTTAT | 0.24 kcal/mol
ATTTTCACGTGCATGG | 0.26 kcal/mol
